# Laboratory results reported in PMC6664820, “Novel natural and synthetic inhibitors of solute carriers SGLT1 and SGLT2” (Pharmacology Research & Perspectives, 2019).
# In all, about 1,900 compounds went through this assay and about 40 (2%) showed an effect of 50% or more. The list shows a part of the results. Residues, ends and D or L forms follow the SMILES beside them. *: point of attachment. For = O=C*
# Target: human SGLT1 (hSGLT1) (human, UniProt P13866)
# Assay: primary screen, percent of control activity; higher = less effect of the substance
# Design: single well
# Conditions: 50 µM
# Summary of the method: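 Single-point screen at 50 µmol/L in CHO-hSGLT1 cells, with 160 µmol/L 1-NBD-glucose in glucose-free DMEM for 90 min at 37°C. Fluorescence from isopropanol extracts was calibrated, and CHO wild-type uptake was subtracted. Data are percent of uptake without compound.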
# Sequence of human SGLT1 (hSGLT1) (P13866 whole entry, looked up): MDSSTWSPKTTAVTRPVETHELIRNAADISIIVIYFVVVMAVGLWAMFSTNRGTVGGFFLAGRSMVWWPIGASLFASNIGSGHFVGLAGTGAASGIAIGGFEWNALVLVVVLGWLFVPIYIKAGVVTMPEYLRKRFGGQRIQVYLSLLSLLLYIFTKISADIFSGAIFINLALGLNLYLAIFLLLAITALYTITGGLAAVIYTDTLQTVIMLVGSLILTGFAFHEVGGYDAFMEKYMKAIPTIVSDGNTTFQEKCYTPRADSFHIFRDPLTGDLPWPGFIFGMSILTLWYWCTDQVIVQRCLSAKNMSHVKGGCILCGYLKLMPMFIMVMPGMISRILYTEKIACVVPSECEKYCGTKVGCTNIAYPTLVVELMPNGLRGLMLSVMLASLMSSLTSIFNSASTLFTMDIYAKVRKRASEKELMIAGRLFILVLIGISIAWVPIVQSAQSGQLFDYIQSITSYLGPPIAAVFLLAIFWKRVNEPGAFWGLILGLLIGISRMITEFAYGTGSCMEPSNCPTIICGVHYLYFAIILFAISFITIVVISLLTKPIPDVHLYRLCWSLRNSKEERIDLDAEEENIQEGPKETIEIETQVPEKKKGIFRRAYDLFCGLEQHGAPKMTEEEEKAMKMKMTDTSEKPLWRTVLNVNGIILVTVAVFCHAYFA
row,Compound,NORMALIZED SGLT1 ACTIVITY (%)
1,O=c1[nH]c2ccccc2n1CCCN1CCC(n2c(=O)[nH]c3cc(Cl)ccc32)CC1,196
2,CC(=O)OCC(=O)[C@@]1(O)[C@H](OC(C)=O)C[C@H]2[C@@H]3CCC4=CC(=O)C=C[C@]4(C)[C@@]3(F)[C@@H](O)C[C@@]21C,107
3,CO[C@H]1C[C@H](O[C@H]2[C@H](C)[C@@H](O[C@@H]3O[C@H](C)C[C@H](N(C)C)[C@H]3O)[C@@H](C)C[C@@]3(CO3)C(=O)[C@H](C)[C@@H](O)[C@@H](C)[C@@H](C)OC(=O)[C@@H]2C)O[C@@H](C)[C@@H]1O.O=P(O)(O)O,104
4,CC1=CC(=O)CC(C)(C)C1(O)/C=C/C(C)=C\C(=O)O (mixture of isomers),104
5,CC(C)C1=CC2=CCC3[C@](C)(CCC[C@]3(C)C(=O)O)C2CC1 (some centres unmarked),230
6,COc1cc(NS(=O)(=O)c2ccc(N)cc2)nc(OC)n1,102
7,CCOc1ccc(Cc2nccc3cc(OCC)c(OCC)cc23)cc1OCC.Cl,107
8,CC(C)=CCC/C(C)=C/CC/C(C)=C/CO,99
9,Clc1ccc(Cl)cc1,115
10,Cc1cc(=O)c2c(O)c(C)c(O)cc2o1,210
11,CC(=O)N[C@@H]1[C@@H](C(O)[C@H](O)CO)O[C@](O)(C(=O)O)C[C@@H]1O (some centres unmarked),112
12,CCCC(C)C1(CC)C(=O)N=C(O)NC1=O (centres unmarked),161
13,COc1ccc2cc1Oc1ccc(cc1)C[C@H]1c3cc(c(OC)cc3CCN1C)Oc1c(OC)c(OC)cc3c1[C@H](C2)N(C)CC3,165
14,CC(=O)Nc1ccc(S(=O)(=O)Nc2ccc([N+](=O)[O-])cc2)cc1,131
15,C[C@]12CCC3c4ccc(OS(=O)(=O)[O-])cc4CCC3C1CC[C@H]2O.[Na+] (some centres unmarked),106
16,Nc1ccc(C(=O)NCC(=O)O)cc1,125
17,C[C@H](N)[C@H](O)c1ccccc1.Cl,131
18,COC(=O)C(N)CS.Cl (centres unmarked),118
19,CCc1ccc2c(O)c3c(cc2c1C(=O)OC)C(=O)c1c(O)ccc(O)c1C3=O,123
20,CC(C)(Sc1cc(C(C)(C)C)c(O)c(C(C)(C)C)c1)Sc1cc(C(C)(C)C)c(O)c(C(C)(C)C)c1,104
21,CCC1(C2=NCCN2)Cc2ccccc2O1.Cl (centres unmarked),98
22,CC(CCc1ccccc1)NCC(O)c1ccc(O)c(C(N)=O)c1.Cl (centres unmarked),76
23,CC(=O)Oc1cccc(C(=O)O)c1OC(C)=O,57

row,Compound,NORMALIZED SGLT1 ACTIVITY (%)
1,CC(C)=CC1C(CO)C1(C)C (centres unmarked),93
2,COc1cc2ccc(=O)oc2cc1O,144
3,C[C@]12CCC(=O)C=C1C=C[C@@H]1[C@@H]2CC[C@@]2(C)[C@H]1CC[C@@]21CCC(=O)O1,93
4,C/C=C/C(=O)N(CC)c1ccccc1C,80
5,NC(=O)N1c2ccccc2CC(=O)c2ccccc21,206
6,Cc1ccc(C)c(OCCCC(C)(C)C(=O)O)c1,246
7,CCCCOC(=O)c1ccccc1C(=O)OCCCC,88
8,Nc1nc2nc[nH]c2c(=S)[nH]1,106
9,CN(C)CCOC(C)(c1ccccc1)c1ccccn1.O=C(O)CCC(=O)O (centres unmarked),85
10,COP(=S)(OC)SCn1nnc2ccccc2c1=O,123
11,O=C(CC[N+](=O)[O-])OC[C@H]1O[C@@H](O)[C@H](OC(=O)CC[N+](=O)[O-])[C@@H](OC(=O)CC[N+](=O)[O-])[C@@H]1OC(=O)CC[N+](=O)[O-],143
12,COc1c(OC)c2occc2c2oc(=O)ccc12,229
13,Cn1c([N+](=O)[O-])cnc1COC(N)=O,82
14,COc1ccccc1-c1cc(=O)c2cccc(OC)c2o1,233
15,COC(=O)C[C@H]1C(C)(C)C2(O)OC34CC2C(=O)[C@]1(C)C3CC[C@]1(C)C4=CC(=O)O[C@H]1c1ccoc1 (some centres unmarked),104
16,COc1cc(-c2coc3cc(OCc4ccccc4)c(OC)c(O)c3c2=O)cc(O)c1OC,301
17,CCCc1ncc(C[n+]2ccccc2C)c(N)n1.Cl.[Cl-],87
18,COc1c(O)cc(O)cc1O,110
19,Cl.Cl.NCCSSCCN,116
20,CC1COc2c(N3CCN(C)CC3)c(F)cc3c(=O)c(C(=O)O)cn1c23 (centres unmarked),162
21,CCOP(=S)(OCC)Oc1ccc2c(C)c(Cl)c(=O)oc2c1,118
22,CCCCCC1C(=O)CCC1CC(=O)O (centres unmarked),135
23,NC(=O)c1ccc([N+](=O)[O-])cc1Cl,119

row,Compound,NORMALIZED SGLT1 ACTIVITY (%)
1,Cc1ncc([N+](=O)[O-])n1CC(C)O (centres unmarked),92
2,COc1cc(O)c2c(=O)c(-c3ccccc3)coc2c1,133
3,CCC(=O)OCC(=O)C1(OC(=O)CC)C(C)CC2C3CCC4=CC(=O)C=CC4(C)C3(Cl)C(O)CC21C (centres unmarked),216
4,CC(=O)O[C@@H]1C2CC[C@@H]3C1(C[C@@H](O)[C@@]1(O)[C@@H](C[C@H](O)C1(C)C)[C@]3(C)O)C[C@@]2(C)O (some centres unmarked),106
5,CC(=O)OCC(=O)[C@@]12OC3(CCCC3)O[C@@H]1C[C@H]1[C@@H]3CCC4=CC(=O)C=C[C@]4(C)[C@@]3(F)[C@@H](O)C[C@@]12C,179
6,COc1c(O)cc2oc3cc(O)c(CC=C(C)C)c(O)c3c(=O)c2c1CC=C(C)C,131
7,COC[C@]12CN(C=O)C3[C@@H]4[C@H](OC)C1[C@]3(C1CC3(O)C(OC)C(O)C4(OC(C)=O)C1C3OC(=O)c1ccccc1)[C@@H](OC)C[C@H]2O (some centres unmarked),91
8,Nc1nc(=O)c2nc(CNc3ccc(C(=O)N[C@@H](CCC(=O)O)C(=O)O)cc3)cnc2[nH]1,114
9,CC(C)=CCC/C(C)=C\CO,133
10,CCN1CCN(C(=O)NC(C(=O)N[C@@H]2C(=O)N3[C@@H]2SC(C)(C)[C@@H]3C(=O)[O-])c2ccccc2)C(=O)C1=O.[Na+] (some centres unmarked),77
11,O=c1c(O)c(-c2ccccc2)oc2cc(O)ccc12,224
12,ClC1=C(Cl)C2(Cl)C3C4CC(C5OC45)C3C1(Cl)C2(Cl)Cl (centres unmarked),136
13,N=C(N)NS(=O)(=O)c1ccc(N)cc1,92
14,CCCCC[C@@H](O)[C@H]1C(=O)O[C@H](C)[C@@H](O)/C=C/C=C/C=C/C=C/C=C(\C)[C@@H](O)C[C@H](O)C[C@H](O)C[C@H](O)C[C@H](O)C[C@H](O)C[C@@H]1O,95
15,O=C1c2ccccc2-c2cccc3cccc1c23,143
16,CC(C)=CCc1c2c(c(O)c3c(=O)c(O)c(-c4ccccc4)oc13)C=CC(C)(C)O2,105
17,C#C[C@]1(OC(C)=O)CC[C@H]2[C@@H]3CCC4=CC(=O)CC[C@@H]4[C@H]3CC[C@@]21C,89
18,CC1=CC(=O)c2ccccc2C1=O,164
19,COC(=O)[C@@H]1C(O)CC[C@H]2CN3CCc4c([nH]c5ccccc45)[C@@H]3C[C@@H]21 (some centres unmarked),137
20,CCN1CCCC(OC(=O)C(c2ccccc2)c2ccccc2)C1.Cl (centres unmarked),90
21,COc1cccc(C=O)c1OC,165
22,Cc1scc2c1N(C(=O)CN1CCN(C)CC1)c1ccccc1NC2=O.Cl,123
23,Cc1nc2sccn2c(=O)c1CCN1CCC(=C(c2ccc(F)cc2)c2ccc(F)cc2)CC1,56

row,Compound,NORMALIZED SGLT1 ACTIVITY (%)
1,Cn1c(=O)[nH]c2nc[nH]c2c1=O,95
2,COc1ccc(C2C(=O)c3ccccc3C2=O)cc1,124
3,Cc1cc(O)cc(O)c1C(=O)O,91
4,Nc1ccn(C2O[C@H](CO)[C@@H](O)[C@@H]2O)c(=O)n1 (some centres unmarked),143
5,CC[C@H](C)C(=O)O[C@H]1C[C@H](O)C=C2C=C[C@H](C)[C@H](CC[C@@H](O)C[C@@H](O)CC(=O)O)[C@H]21,136
6,Cc1cnc(NC(=O)C2=C([O-])c3ccccc3S(=O)(=O)N2C)s1.[Na+],133
7,COc1cc([C@@H]2c3cc4c(cc3[C@@H](O)C3COC(=O)C32)OCO4)cc(OC)c1O (some centres unmarked),123
8,Cl.c1ccc(C2CN3CCSC3=N2)cc1 (centres unmarked),101
9,O=C/C=C/c1ccc(O)cc1,172
10,O=C(O)c1cc(O)c2c(c1)C(=O)c1cc(O)cc(O)c1C2=O,132
11,CC1=CC2C(C(C)C)CCC(C)(O)C2CC1 (centres unmarked),172
12,OCC(O)C(O)C(O)CO (centres unmarked),85
13,CCCCCCCCCCCCCCCCCC(=O)O.CC[C@H]1OC(=O)[C@H](C)[C@@H](O[C@H]2C[C@@](C)(OC)[C@@H](O)[C@H](C)O2)[C@H](C)[C@@H](O[C@@H]2O[C@H](C)C[C@H](N(C)C)[C@H]2O)[C@](C)(O)C[C@@H](C)C(=O)[C@H](C)[C@@H](O)[C@]1(C)O,106
14,Nc1c2c(nc3ccccc13)CCCC2O.O=C(O)/C=C\C(=O)O (centres unmarked),183
15,CCC(=O)Nc1ccc(Cl)c(Cl)c1,280
16,CNC[C@H](O)c1cccc(O)c1.Cl,113
17,C[C@]12CCC3C(CC[C@H]4C[C@H](OS(=O)(=O)[O-])CC[C@]34C)C1CCC2=O.[Na+] (some centres unmarked),124
18,CN(C)CCC(c1ccc(Cl)cc1)c1ccccn1.O=C(O)/C=C\C(=O)O (stereo in doubt),85
19,Cl.OC(c1cc(C(F)(F)F)nc2c(C(F)(F)F)cccc12)C1CCCCN1 (centres unmarked),91
20,NC(=O)CC[C@H](N)C(=O)O,89
21,CSCCC(NC=O)C(=O)NC(Cc1ccccc1)C(=O)O (stereo not drawn) (For-Met-Phe-OH; configuration not given here),172
22,CC12CCCC(O)(C1)C1CC(C)(C)C1CC2 (centres unmarked),135
23,CCOC(=O)C(=O)C1(C(=O)OCC)Oc2cc(OC)cc(OC)c2C(=O)C1c1ccccc1 (centres unmarked),123
